Reference: article PMC11243598, “Inhibition of Monoamine Oxidases by Pyridazinobenzylpiperidine Derivatives” (Molecules, 2024)

biological target: T1, MAO-B (Homo sapiens, UniProt P27338); settings: IC50 of MAO-A/IC50 of MAO-B
T1 sequence (P27338 1-520): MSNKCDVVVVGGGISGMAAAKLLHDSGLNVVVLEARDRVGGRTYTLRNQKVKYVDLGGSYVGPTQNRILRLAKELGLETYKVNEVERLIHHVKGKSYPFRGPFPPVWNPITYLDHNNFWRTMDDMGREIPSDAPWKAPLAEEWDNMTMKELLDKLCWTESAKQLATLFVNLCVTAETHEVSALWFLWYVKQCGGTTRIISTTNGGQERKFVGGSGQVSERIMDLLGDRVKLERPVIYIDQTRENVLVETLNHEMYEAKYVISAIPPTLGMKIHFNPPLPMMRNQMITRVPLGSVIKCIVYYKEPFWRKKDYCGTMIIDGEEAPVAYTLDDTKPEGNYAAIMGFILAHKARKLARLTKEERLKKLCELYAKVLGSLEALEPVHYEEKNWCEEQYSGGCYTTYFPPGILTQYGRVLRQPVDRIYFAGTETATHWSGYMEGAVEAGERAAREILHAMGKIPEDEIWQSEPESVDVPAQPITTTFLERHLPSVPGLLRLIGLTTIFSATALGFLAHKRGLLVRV

Row | SMILES | SI (selectivity index)
1 | COc1cc(C=NNC(=O)Cn2nc(N3CCC(Cc4ccccc4)CC3)ccc2=O)cc(OC)c1OC [Compound S23, N′-3,4,5-trimethoxybenzylidene-2-(3-(4-benzylpiperidin-1-yl)-6-oxopyridazin-1(6H)-yl)acetohydrazide] | 2.59
2 | N#Cc1cccc(C=NNC(=O)Cn2nc(N3CCC(Cc4ccccc4)CC3)ccc2=O)c1 [Compound S17, N′-3-cyanobenzylidene-2-(3-(4-benzylpiperidin-1-yl)-6-oxopyridazin-1(6H)-yl)acetohydrazide] | 2.03
3 | N#Cc1ccccc1C=NNC(=O)Cn1nc(N2CCC(Cc3ccccc3)CC2)ccc1=O [Compound S16, N′-2-cyanobenzylidene-2-(3-(4-benzylpiperidin-1-yl)-6-oxopyridazin-1(6H)-yl)acetohydrazide] | 6.28
4 | COc1cccc(C=NNC(=O)Cn2nc(N3CCC(Cc4ccccc4)CC3)ccc2=O)c1 [Compound S11] | 2.96
5 | O=C(Cn1nc(N2CCC(Cc3ccccc3)CC2)ccc1=O)NN=Cc1ccc(Cl)cc1 [Compound S6] | 1.44
6 | COc1cc(C=NNC(=O)Cn2nc(N3CCC(Cc4ccccc4)CC3)ccc2=O)cc(OC)c1 [Compound S20, N′-3,5-dimethoxybenzylidene-2-(3-(4-benzylpiperidin-1-yl)-6-oxopyridazin-1(6H)-yl)acetohydrazide] | 5.23
7 | COc1ccc(C=NNC(=O)Cn2nc(N3CCC(Cc4ccccc4)CC3)ccc2=O)cc1 [Compound S12] | 0.72
8 | N#Cc1ccc(C=NNC(=O)Cn2nc(N3CCC(Cc4ccccc4)CC3)ccc2=O)cc1 [Compound S18, N′-4-cyanobenzylidene-2-(3-(4-benzylpiperidin-1-yl)-6-oxopyridazin-1(6H)-yl)acetohydrazide] | 2.05
9 | Cc1ccccc1C=NNC(=O)Cn1nc(N2CCC(Cc3ccccc3)CC2)ccc1=O [Compound S9, N′-2-methylbenzylidene-2-(3-(4-benzylpiperidin-1-yl)-6-oxopyridazin-1(6H)-yl)acetohydrazide] | 0.62
10 | CCc1ccc(C=NNC(=O)Cn2nc(N3CCC(Cc4ccccc4)CC3)ccc2=O)cc1 [Compound S15, N′-4-ethylbenzylidene-2-(3-(4-benzylpiperidin-1-yl)-6-oxopyridazin-1(6H)-yl)acetohydrazide] | 0.69
11 | Cc1cccc(C=NNC(=O)Cn2nc(N3CCC(Cc4ccccc4)CC3)ccc2=O)c1 [Compound S10, N′-3-methylbenzylidene-2-(3-(4-benzylpiperidin-1-yl)-6-oxopyridazin-1(6H)-yl)acetohydrazide] | 1.28
12 | O=C(Cn1nc(N2CCC(Cc3ccccc3)CC2)ccc1=O)NN=Cc1ccccc1Br [Compound S3, N′-2-bromobenzylidene-2-(3-(4-benzylpiperidin-1-yl)-6-oxopyridazin-1(6H)-yl)acetohydrazide] | 0.87
13 | COc1ccc(C=NNC(=O)Cn2nc(N3CCC(Cc4ccccc4)CC3)ccc2=O)c(OC)c1 [Compound S24, N′-2,4-dimethoxybenzylidene-2-(3-(4-benzylpiperidin-1-yl)-6-oxopyridazin-1(6H)-yl)acetohydrazide] | 0.39
14 | O=C(Cn1nc(N2CCC(Cc3ccccc3)CC2)ccc1=O)NN=Cc1ccc(Br)cc1 [Compound S2] | 1.02
15 | O=C(Cn1nc(N2CCC(Cc3ccccc3)CC2)ccc1=O)NN=Cc1cccc(Cl)c1 [Compound S5, N′-3-chlorobenzylidene-2-(3-(4-benzylpiperidin-1-yl)-6-oxopyridazin-1(6H)-yl)acetohydrazide] | 19.04
16 | O=C(Cn1nc(N2CCC(Cc3ccccc3)CC2)ccc1=O)NN=Cc1cccc(F)c1 [Compound S7, N′-3-fluorobenzylidene-2-(3-(4-benzylpiperidin-1-yl)-6-oxopyridazin-1(6H)-yl)acetohydrazide] | 2.77
17 | O=C(Cn1nc(N2CCC(Cc3ccccc3)CC2)ccc1=O)NN=Cc1ccccc1 [Compound S1] | 2.34
18 | CN(C)c1ccc(C=NNC(=O)Cn2nc(N3CCC(Cc4ccccc4)CC3)ccc2=O)cc1 [Compound S13] | 0.87
19 | O=C(Cn1nc(N2CCC(Cc3ccccc3)CC2)ccc1=O)NN=Cc1cccc(Br)c1 [Compound S4, N′-3-bromobenzylidene-2-(3-(4-benzylpiperidin-1-yl)-6-oxopyridazin-1(6H)-yl)acetohydrazide] | 4.37
20 | COc1cccc(C=NNC(=O)Cn2nc(N3CCC(Cc4ccccc4)CC3)ccc2=O)c1OC [Compound S22, N′-2,3-dimethoxybenzylidene-2-(3-(4-benzylpiperidin-1-yl)-6-oxopyridazin-1(6H)-yl)acetohydrazide] | 0.75
21 | O=C(Cn1nc(N2CCC(Cc3ccccc3)CC2)ccc1=O)NN=Cc1ccc([N+](=O)[O-])cc1 [Compound S14] | 6.67
22 | O=C(Cn1nc(N2CCC(Cc3ccccc3)CC2)ccc1=O)NN=Cc1ccc(F)cc1 [Compound S8] | 1.49
23 | COc1ccccc1C=NNC(=O)Cn1nc(N2CCC(Cc3ccccc3)CC2)ccc1=O [Compound S19, N′-2-methoxybenzylidene-2-(3-(4-benzylpiperidin-1-yl)-6-oxopyridazin-1(6H)-yl)acetohydrazide] | 4.66
24 | COc1cc(OC)c(C=NNC(=O)Cn2nc(N3CCC(Cc4ccccc4)CC3)ccc2=O)c(OC)c1 [Compound S21, N′-2,4,6-trimethoxybenzylidene-2-(3-(4-benzylpiperidin-1-yl)-6-oxopyridazin-1(6H)-yl)acetohydrazide] | 1.22
